{"source": "patent US4335244A", "about": "“Monolactate salts of 4'-(9-acridinylamino)methanesulfon-m-anisidide” (Bristol-Myers Company, priority 1980, dated 1982)", "key": {"[1]": {"conditions": "cited from earlier work"}}}
{"smiles": "COc1cc(NS(C)(=O)=O)ccc1Nc1c2ccccc2nc2ccccc12", "note": "[Example 4, m-AMSA Mono DL-Lactate Acetone Solvate]", "values": [{"measurement": "Water-solubility (in words)", "result": "sufficiently high water-solubility at room temperature"}]}
{"smiles": "COc1cc(NS(C)(=O)=O)ccc1Nc1c2ccccc2nc2ccccc12", "note": "[Example 1, L(+)-Monolactate Hemiacetonate of m-AMSA]", "values": [{"measurement": "Water-solubility (in words)", "result": "sufficiently high water-solubility at room temperature"}]}
{"smiles": "COc1cc(NS(C)(=O)=O)ccc1Nc1c2ccccc2nc2ccccc12", "note": "[m-AMSA, 4'-(9-acridinylamino)methanesulfon-m-anisidide]", "values": [{"measurement": "Water-solubility (in words, prior art forms)", "setting": "[1]", "result": "very limited solubility in water"}]}
{"smiles": "COc1cc(NS(C)(=O)=O)ccc1Nc1c2ccccc2nc2ccccc12", "note": "[citrate, reference compound]", "values": [{"measurement": "Water-solubility (in words)", "result": "only slightly soluble in water"}]}
{"smiles": "COc1cc(NS(C)(=O)=O)ccc1Nc1c2ccccc2nc2ccccc12", "note": "[Example 10, m-AMSA D(-)-Monolactate Hemiacetonate]", "values": [{"measurement": "Water-solubility (in words)", "result": "sufficiently high water-solubility at room temperature"}]}
